Measured values published in the supplement of paper PMC4967469.

Assays:
Assay in all cases: Viability of human cancer cell lines after 72 h of drug (GDSC screen)
Bexarotene = compound: C=C(c1ccc(C(=O)O)cc1)c1cc2c(cc1C)C(C)(C)CCC2(C)C [Bexarotene]; details: top dose 8 µM
Experimental: (§1)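 Human cancer cell lines in 384-well plates, medium with 10% serum, drug for 72 h over a 256-fold dose range (nine 2-fold or five 4-fold steps up to the top dose). Adherent lines were fixed and stained with the nucleic acid dye Syto60, suspension lines read with resazurin; signal relative to control wells, capped at 0 and 100%. One two-parameter sigmoid per drug and line, fitted in a mixed model over all curves with the slope shared within a line.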

NPK76-II-72-1 = compound: COc1cc(C(=O)NC2CCN(C)CC2)ccc1Nc1ncc2c(n1)N(C1CCCC1)C(C)CC(=O)N2C [NPK76-II-72-1]; details: top dose 10.24 µM; top dose inferred
Experimental: as §1

Etoposide = compound: COc1cc([C@@H]2c3cc4c(cc3[C@@H](O[C@@H]3O[C@@H]5CO[C@@H](C)O[C@H]5[C@H](O)[C@H]3O)[C@H]3COC(=O)[C@H]23)OCO4)cc(OC)c1O [Etoposide]; details: top dose 16 µM
Experimental: as §1

YK 4-279 = compound: COc1ccc(C(=O)CC2(O)C(=O)Nc3c(Cl)ccc(Cl)c32)cc1 [YK 4-279]; details: top dose 10 µM
Experimental: as §1

BMS-345541 = compound: Cc1ccc2nc(NCCN)c3ncc(C)n3c2c1 [BMS-345541]; details: top dose 16 µM
Experimental: as §1

AZD7762 = compound: NC(=O)Nc1cc(-c2cccc(F)c2)sc1C(=O)N[C@H]1CCCNC1 [AZD7762]; details: top dose 2 µM
Experimental: as §1

GSK-650394 = compound: O=C(O)c1ccc(-c2c[nH]c3ncc(-c4ccccc4)cc23)cc1C1CCCC1 [GSK-650394]; details: top dose 16 µM; top dose inferred
Experimental: as §1

XAV 939 = compound: Oc1nc(-c2ccc(C(F)(F)F)cc2)nc2c1CSCC2 [XAV 939]; details: top dose 5 µM; top dose inferred
Experimental: as §1

Row | Cell Line | AUC (Bexarotene) | IC50 (Bexarotene) [µM] | AUC (NPK76-II-72-1) | IC50 (NPK76-II-72-1) [µM] | AUC (Etoposide) | IC50 (Etoposide) [µM] | AUC (YK 4-279) | IC50 (YK 4-279) [µM] | AUC (BMS-345541) | IC50 (BMS-345541) [µM] | AUC (AZD7762) | IC50 (AZD7762) [µM] | AUC (GSK-650394) | IC50 (GSK-650394) [µM] | AUC (XAV 939) | IC50 (XAV 939) [µM]
1 | NCI-H2029 (small cell lung carcinoma, adherent) | 0.992 | > 8 | 0.862 | 7.39 | 0.868 | 12.3 | 0.969 | > 10 | 0.936 | > 16 | 0.91 | > 2 | 0.987 | > 16 | 0.991 | > 5
2 | NCI-H2081 (small cell lung carcinoma, suspension) | 0.987 | > 8 | 0.929 | > 10.2 | 0.717 | 4.29 | 0.97 | > 10 | 0.798 | 8.09 | 0.882 | > 2 | 0.949 | > 16 | 0.986 | > 5
3 | NCI-H2135 (non-small cell lung carcinoma, adherent) | 0.941 | > 8 | 0.85 | 7.42 | 0.785 | 6.64 | 0.99 | > 10 | 0.899 | > 16 | 0.981 | > 2 | 0.939 | > 16 | 0.982 | > 5
4 | NCI-H2141 (small cell lung carcinoma, suspension) | 0.991 | > 8 | 0.983 | > 10.2 | 0.798 | 7.4 | 0.99 | > 10 | 0.888 | > 16 | 0.92 | > 2 | 0.977 | > 16 | 0.982 | > 5
5 | NCI-H2172 (non-small cell lung carcinoma, adherent) | 0.982 | > 8 | 0.955 | > 10.2 | 0.944 | > 16 | 0.921 | > 10 | 0.866 | > 16 | 0.942 | > 2 | 0.979 | > 16 | 0.974 | > 5
6 | NCI-H2227 (small cell lung carcinoma, semi-adherent) | 0.982 | > 8 | 0.478 | 0.555 | 0.949 | > 16 | 0.908 | > 10 | 0.854 | 15.3 | 0.828 | 1.46 | 0.984 | > 16 | 0.974 | > 5
7 | NCI-H2291 (lung adenocarcinoma, adherent) | 0.983 | > 8 | 0.984 | > 10.2 | 0.982 | > 16 | 0.918 | > 10 | 0.957 | > 16 | 0.9 | > 2 | 0.983 | > 16 | 0.895 | > 5
8 | NCI-H2342 (lung adenocarcinoma, adherent) | 0.883 | > 8 | 0.982 | > 10.2 | 0.458 | 0.757 | 0.962 | > 10 | 0.962 | > 16 | 0.899 | > 2 | 0.611 | 2.09 | 0.801 | 2.73
9 | NCI-H2347 (lung adenocarcinoma, adherent) | 0.969 | > 8 | 0.967 | > 10.2 | 0.795 | 9.32 | 0.854 | > 10 | 0.883 | > 16 | 0.833 | 1.69 | 0.926 | > 16 | 0.902 | > 5
10 | NCI-H2405 (lung adenocarcinoma, adherent) | 0.915 | > 8 | 0.934 | > 10.2 | 0.647 | 2.68 | 0.864 | > 10 | 0.884 | > 16 | 0.949 | > 2 | 0.909 | > 16 | 0.933 | > 5
11 | NCI-H2444 (non-small cell lung carcinoma, adherent) | 0.988 | > 8 | 0.966 | > 10.2 | 0.988 | > 16 | 0.987 | > 10 | 0.984 | > 16 | 0.733 | 0.638 | 0.988 | > 16 | 0.985 | > 5
12 | NCI-H2452 (mesothelioma, adherent) | 0.966 | > 8 | 0.983 | > 10.2 | 0.979 | > 16 | 0.767 | 4.44 | 0.984 | > 16 | 0.816 | 1.39 | 0.984 | > 16 | 0.928 | > 5
13 | NCI-SNU-1 (stomach, suspension) | 0.988 | > 8 | 0.827 | 6.55 | 0.601 | 1.91 | 0.974 | > 10 | 0.666 | 2.95 | 0.95 | > 2 | 0.903 | > 16 | 0.978 | > 5
14 | NCI-SNU-5 (stomach, suspension) | 0.989 | > 8 | 0.989 | > 10.2 | 0.821 | 9.41 | 0.903 | > 10 | 0.935 | > 16 | 0.483 | 0.112 | 0.988 | > 16 | 0.981 | > 5
15 | NKM-1 (acute myeloid leukaemia, suspension) | 0.867 | 7.61 | 0.495 | 0.621 | 0.381 | 0.466 | 0.603 | 1.21 | 0.587 | 1.75 | 0.038 | < 0.00781 | 0.549 | 1.37 | 0.961 | > 5
16 | NMC-G1 (glioma, adherent) | 0.909 | > 8 | 0.936 | > 10.2 | 0.657 | 3.03 | 0.626 | 1.5 | 0.888 | > 16 | 0.798 | 1.21 | 0.948 | > 16 | 0.791 | 2.84

Row | Cell Line | AUC (Bexarotene) | IC50 (Bexarotene) [µM] | AUC (NPK76-II-72-1) | IC50 (NPK76-II-72-1) [µM] | AUC (Etoposide) | IC50 (Etoposide) [µM] | AUC (YK 4-279) | IC50 (YK 4-279) [µM] | AUC (BMS-345541) | IC50 (BMS-345541) [µM] | AUC (AZD7762) | IC50 (AZD7762) [µM] | AUC (GSK-650394) | IC50 (GSK-650394) [µM] | AUC (XAV 939) | IC50 (XAV 939) [µM]
17 | NOS-1 (osteosarcoma, adherent) | 0.787 | 4.37 | 0.868 | > 10.2 | 0.647 | 2.82 | 0.92 | > 10 | 0.6 | 2 | 0.73 | 0.665 | 0.811 | 10.9 | 0.959 | > 5
18 | NTERA-2 cl.D1 (testis, adherent) | 0.882 | > 8 | 0.959 | > 10.2 | 0.033 | < 0.0625 | 0.657 | 1.7 | 0.923 | > 16 | 0.853 | 1.54 | 0.596 | 1.83 | 0.934 | > 5
19 | NU-DUL-1 (B-cell lymphoma, suspension) | 0.913 | 7.61 | 0.462 | 0.516 | 0.421 | 0.635 | 0.99 | > 10 | 0.846 | 8.39 | 0.222 | 0.0239 | 0.931 | > 16 | 0.987 | > 5
20 | NUGC-4 (stomach, adherent) | 0.974 | > 8 | 0.824 | 6.07 | 0.776 | 6.38 | 0.707 | 2.39 | 0.96 | > 16 | 0.571 | 0.195 | 0.872 | 15.3 | 0.974 | > 5
21 | NY (osteosarcoma, adherent) | 0.886 | > 8 | 0.989 | > 10.2 | 0.725 | 4.31 | 0.582 | 1.04 | 0.965 | > 16 | 0.588 | 0.218 | 0.959 | > 16 | 0.987 | > 5
22 | OAW-42 (ovary, adherent) | 0.9 | > 8 | 0.961 | > 10.2 | 0.769 | 6.55 | 0.737 | 3.16 | 0.886 | > 16 | 0.805 | 1.11 | 0.887 | > 16 | 0.852 | 4.4
23 | OCI-AML3 (acute myeloid leukaemia, suspension) | 0.981 | > 8 | 0.623 | 1.32 | 0.772 | 5.32 | 0.739 | 2.66 | 0.797 | 6.33 | 0.817 | 0.917 | 0.982 | > 16 | 0.99 | > 5
24 | OCI-AML5 (acute myeloid leukaemia, suspension) | 0.52 | 0.565 | 0.714 | 2.42 | 0.499 | 0.994 | 0.758 | 3.2 | 0.643 | 2.39 | 0.504 | 0.128 | 0.635 | 2.28 | 0.986 | > 5
25 | OCI-M1 (acute myeloid leukaemia, suspension) | 0.994 | > 8 | 0.789 | 3.4 | 0.66 | 2.47 | 0.79 | 3.35 | 0.852 | 8.09 | 0.624 | 0.252 | 0.929 | 15.7 | 0.991 | > 5
26 | OCUB-M (breast, adherent) | 0.602 | 0.911 | 0.804 | 4.32 | 0.154 | 0.107 | 0.673 | 1.76 | 0.878 | 12.5 | 0.94 | > 2 | 0.562 | 1.44 | 0.955 | > 5
27 | OE19 (oesophagus, adherent) | 0.92 | > 8 | 0.981 | > 10.2 | 0.859 | > 16 | 0.867 | > 10 | 0.941 | > 16 | 0.829 | 1.47 | 0.846 | 14.1 | 0.962 | > 5
28 | OE21 (oesophagus, adherent) | 0.889 | > 8 | 0.932 | > 10.2 | 0.871 | > 16 | 0.641 | 1.78 | 0.889 | > 16 | 0.446 | 0.0842 | 0.859 | > 16 | 0.828 | 4.8
29 | OE33 (oesophagus, adherent) | 0.971 | > 8 | 0.973 | > 10.2 | 0.721 | 4.82 | 0.915 | > 10 | 0.932 | > 16 | 0.673 | 0.42 | 0.693 | 3.89 | 0.883 | > 5
30 | OMC-1 (cervix, adherent) | 0.965 | > 8 | 0.966 | > 10.2 | 0.88 | > 16 | 0.916 | > 10 | 0.915 | > 16 | 0.741 | 0.637 | 0.964 | > 16 | 0.958 | > 5
31 | ONS-76 (medulloblastoma, adherent) | 0.913 | > 8 | 0.914 | > 10.2 | 0.435 | 0.656 | 0.708 | 2.55 | 0.872 | > 16 | 0.403 | 0.0664 | 0.759 | 5.98 | 0.966 | > 5
32 | OPM-2 (myeloma, suspension) | 0.99 | > 8 | 0.601 | 1.14 | 0.865 | 10 | 0.959 | > 10 | 0.637 | 2.22 | 0.775 | 0.646 | 0.975 | > 16 | 0.992 | > 5

Lines with a small IC50 respond at low doses; where the fit passes the top or lowest dose, that dose stands as a limit. The AUC spans the tested range (256-fold, ending at the top dose) of the same fit; values near 1 show little effect. For some assays here: The top dose, if marked as inferred, was calculated from the reported fits.
